Data from PubChem BioAssay AID1768 (National Center for Advancing Translational Sciences (NCATS), 2009).
The whole screen tested about 270,000 compounds, of which about 620 (0.23%) were called active. This list was built around the results that the source calls inconclusive (neither active nor inactive); the mix of calls is not that of the screen. Calls follow the shape of the dose curve; as a rule, active = well fitted inhibition curve with a large enough effect in the polarisation, with a control signal flat (not every such curve was filed as active); inconclusive = small, poorly fitted or top-dose-only effect, or effect the other way, or a change in a side signal; inactive = no such curve, though single readings can be large or run the other way; the % refers to the polarisation. Potencies of inconclusive entries are doubtful fits and often do not repeat. A note “side channel” means that the fit belongs to a control or component signal, not to the main read-out.

Target: Menin (Homo sapiens) (UniProt O00255)
Test: qHTS Assay for Inhibitors Targeting the Menin-MLL Interaction in MLL Related Leukemias: Competition With Texas Red Labeled MLL-derived Mutant Peptide
Settings: fluorescence polarization; series mostly up to 61.6 µM
Potency is read from the fitted curve at half-maximal effect; tags tell the direction and shape of the fitted curve or compound fluorescence and quenching.

Chain of UniProt O00255 (O00255 whole entry, looked up): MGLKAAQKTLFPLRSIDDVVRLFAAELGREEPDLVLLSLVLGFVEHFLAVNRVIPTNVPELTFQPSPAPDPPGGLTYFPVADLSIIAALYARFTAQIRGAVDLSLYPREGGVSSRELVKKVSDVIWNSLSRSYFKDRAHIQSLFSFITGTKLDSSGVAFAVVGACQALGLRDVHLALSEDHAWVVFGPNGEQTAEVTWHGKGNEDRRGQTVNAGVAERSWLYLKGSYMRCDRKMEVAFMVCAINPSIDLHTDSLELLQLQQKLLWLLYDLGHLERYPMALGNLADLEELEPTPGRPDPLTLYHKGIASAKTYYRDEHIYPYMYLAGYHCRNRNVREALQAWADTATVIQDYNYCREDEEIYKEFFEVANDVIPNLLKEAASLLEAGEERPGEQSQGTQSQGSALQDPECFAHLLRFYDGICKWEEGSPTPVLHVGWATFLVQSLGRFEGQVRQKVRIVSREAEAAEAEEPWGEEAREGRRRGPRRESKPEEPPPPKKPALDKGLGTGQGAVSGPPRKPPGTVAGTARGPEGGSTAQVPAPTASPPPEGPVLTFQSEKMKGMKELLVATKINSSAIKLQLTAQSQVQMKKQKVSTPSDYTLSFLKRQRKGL

Structure (SMILES)	Potency
CC(Nc1nc(C(F)(F)F)nc2ccccc12)c1cccs1 (configuration not stated)	inconclusive: 17.8 µM [quencher, side channel, partial curve]
O=C(NCc1ccco1)Nc1ccccc1Cl	inactive
CC(=O)COC(=O)c1cc(-c2ccc(C)cc2)nc2ccccc12	inconclusive: 20 µM [quencher, side channel, partial curve]
CCN1C(=O)/C(=C2/Sc3ccccc3N2CC)S/C1=N\c1ncn[nH]1	inconclusive: 28.2 µM [quencher, side channel, partial curve]
Cc1ccc(-c2nc3s/c(=C\c4ccco4)c(=O)n3n2)cc1	inconclusive: 12.6 µM [quencher, side channel, partial curve]
O=C1CSC(c2ccc(F)cc2)N1c1ccccc1F (configuration not stated)	inconclusive: 39.8 µM [inhibitor, single point]
COc1cc(/C=C2\SC(=S)NC2=O)ccc1OS(=O)(=O)c1ccccc1	inconclusive: 8.91 µM [quencher, side channel, full curve]
Cc1ccc(NC(=O)CCC(=O)OC(C(=O)c2ccc(C)c(C)c2)c2ccccc2)c(C)c1 (configuration not stated)	inconclusive: 25.1 µM [fluorescent, side channel, single point]
CCc1ccc(C(=O)N2CCN(c3ccc(F)cc3)CC2)s1	inconclusive: 4.47 µM [fluorescent, side channel, full curve]
CCCCN(CCCC)CCNC(=O)CSCc1ccc(C)cc1	inconclusive: 12.6 µM [fluorescent, side channel, partial curve]
O=C(O)c1cc(C(=O)O)c(C(=O)N(Cc2cccc(Oc3ccccc3)c2)[C@H]2CCCc3ccccc32)cc1C(=O)O	inactive
O=C(CSc1nnc(-c2ccccc2F)n1C1CCCCC1)N1CCCC1	inconclusive: 8.91 µM [fluorescent, side channel, full curve, poor fit]
Cc1cc(=O)n(-c2ccc(C(=O)O)cc2)[nH]1	inactive
Nc1c(-c2ccc(Cl)cc2)cnc2c(-c3ccc(F)cc3)cnn12	inconclusive: 2.82 µM [quencher, side channel, single point]
O=C(CC1S/C(=N/N=C/c2ccco2)NC1=O)Nc1cccc(Cl)c1Cl (configuration not stated)	inconclusive: 28.2 µM [inhibitor, single point]
Cc1ccc(N2C(=O)c3ccc(N)cc3C2=O)cc1C	inconclusive: 31.6 µM [quencher, side channel, single point]
COc1cc(NC(=O)CN2CCN(CC(=O)Nc3ccccc3OC)CC2)cc(OC)c1	inconclusive: 20 µM [fluorescent, side channel, partial curve]
Cc1cccc(-n2[nH]c(C)c(C=Nc3ccc4[nH]c(=O)[nH]c4c3)c2=O)c1	inactive
O=C(Nc1cc(Cl)ccc1O)c1cc2n(n1)C(C(F)(F)F)CC(c1ccc3c(c1)OCO3)N2 (configuration not stated)	inconclusive: 10 µM [quencher, side channel, partial curve]

Structure (SMILES)	Potency
CCOc1ccc(-c2c(C(=O)N/N=C/c3c[nH]c4ccccc34)nnn2-c2nonc2N)cc1	inconclusive: 2.82 µM [quencher, side channel, full curve, poor fit]
CCNc1ncc2nc(-c3cc(F)cc(F)c3)c(=O)n(CCc3ccccc3)c2n1	inconclusive: 17.8 µM [fluorescent, side channel, partial curve]
CCCCN(C)CCNC(=O)c1nn(-c2ccc(OC)cc2)c(=O)c2c1c1ccccc1n2C	inconclusive: 3.16 µM [fluorescent, side channel, full curve]
COc1ccc(Nc2ncnc3sc(-c4ccccc4)cc23)cc1OC	inconclusive: 25.1 µM [quencher, side channel, partial curve]
CCOC(=O)C(=Cc1ccc(-n2ccnc2)cc1)C(=O)OCC	inconclusive: 11.2 µM [fluorescent, side channel, partial curve]
COc1ccc(NS(=O)(=O)c2cccc3nonc23)c(OC)c1	inconclusive: 7.08 µM [quencher, side channel, full curve, poor fit]
O=C1C(Cc2c[nH]c3ccccc23)NC(=S)N1C1CCCCC1 (configuration not stated)	inconclusive: 12.6 µM [quencher, side channel, partial curve]
CCOc1ccccc1OCCCC(=O)N1CCN(S(=O)(=O)c2ccc(C)cc2)CC1	inconclusive: 11.2 µM [fluorescent, side channel, partial curve]
CN(C)S(=O)(=O)c1cccc(NC(=S)Nc2ccc(Cl)cc2Cl)c1	inconclusive: 39.8 µM [quencher, side channel, single point]
COc1ccccc1C(CC(=O)Nc1nccs1)c1ccco1 (configuration not stated)	inconclusive: 31.6 µM [quencher, side channel, single point]
O=[N+]([O-])c1ccc(O)c(/C=N/Nc2nn[nH]n2)c1	inactive
COc1cc(Cl)cc(C(c2c(C(=O)O)[nH]c3ccccc23)c2c(C(=O)O)[nH]c3ccccc23)c1O	inconclusive: 35.5 µM [quencher, side channel, single point]
CN1CCC(N(C)C(=S)NC(=O)c2cc(-c3cccc(Br)c3)nc3ccccc23)CC1	inconclusive: 3.98 µM [fluorescent, side channel, single point]
CC(C)(C)N=Cc1cc(-c2ccccc2)sc1O	inconclusive: 11.2 µM [quencher, side channel, partial curve]
Cc1ccc(/C=C2/SC(=S)N(CC(=O)Nc3ncc(Cc4ccc(C)cc4)s3)C2=O)cc1	inconclusive: 3.55 µM [quencher, side channel, single point]
O=C(N/N=C/c1ccc(Br)o1)c1cc([N+](=O)[O-])cc([N+](=O)[O-])c1	inconclusive: 22.4 µM [quencher, side channel, single point]
COc1cc(/C=N/N2CCCCC2)cc(OC)c1O	inconclusive: 39.8 µM [inhibitor, single point]
Nc1nc(-c2ccco2)c(-c2ccco2)s1	inconclusive: 25.1 µM [quencher, side channel, partial curve]
CCOC(=O)c1c(NC(NC(C)=O)C(Cl)(Cl)Cl)sc(C(C)=O)c1C (configuration not stated)	inconclusive: 7.08 µM [inhibitor, partial curve]

Structure (SMILES)	Potency
CCc1nnc(NC(=O)CSc2ccc(-c3ccc(C)cc3)nn2)s1	inconclusive: 35.5 µM [fluorescent, side channel, single point]
CC1(C)CC(=O)C(N=Nc2cc3c(cc2[N+](=O)[O-])OCCO3)=C(O)C1	inconclusive: 39.8 µM [inhibitor, single point]
Cc1ccc(CNC(=O)C2CCC(=O)N(Cc3ccccc3F)C2)s1 (configuration not stated)	inactive
CCN(CC)S(=O)(=O)c1ccc(OC)c(NC(=O)Cc2cccs2)c1	inconclusive: 20 µM [quencher, side channel, partial curve]
C(=N\Nc1nc2ccccc2[nH]1)/c1ccccc1	inconclusive: 31.6 µM [quencher, side channel, single point]
COc1ccc(NC(=O)C2Cc3ccccc3O/C2=N\O)cc1 (configuration not stated)	inconclusive: 17.8 µM [inhibitor, partial curve]
Fc1ccccc1-c1nc(-c2ccccc2)no1	inconclusive: 0.708 µM [quencher, side channel, full curve, poor fit]
C=CCNC(=S)Nc1ccc(N2CCOCC2)c(S(=O)(=O)Nc2ccccc2Cl)c1	inconclusive: 25.1 µM [quencher, side channel, partial curve]
CC(C(=O)N1CCN(c2ccc(Cl)cc2)CC1)c1ncc(C(F)(F)F)cc1Cl (configuration not stated)	inconclusive: 39.8 µM [inhibitor, single point]
O=C(Nc1cccc(F)c1)c1c(O)c2cccc3c2n(c1=O)CCC3	inconclusive: 3.16 µM [inhibitor, full curve]
N#Cc1c(-c2ccco2)cc(-c2ccccn2)nc1N	inconclusive: 35.5 µM [quencher, side channel, single point]
COc1cc2ccccc2cc1C(=O)NC(=S)Nc1ccc(C(=O)O)cc1	inconclusive: 11.2 µM [quencher, side channel, partial curve]
COC(=O)c1ccsc1NC(=O)CN1CCN(c2ccc(F)cc2)CC1	inconclusive: 25.1 µM [inhibitor, single point]
COc1cccc(-c2cc(=O)c3cc(NC(=O)c4ccc(C)cc4)ccc3[nH]2)c1	inconclusive: 28.2 µM [fluorescent, side channel, partial curve]
Cc1ccc(OCCOCCN2CCN(C)CC2)c(C(C)(C)C)c1	inconclusive: 31.6 µM [inhibitor, partial curve]
Cc1cc(/C=C2/SC(=S)N(c3ccc([N+](=O)[O-])cc3)C2=O)c(C)n1-c1cccnc1	inconclusive: 39.8 µM [quencher, side channel, single point]
O=C(Cc1ccccc1[N+](=O)[O-])Nc1ccc2c(c1)OCCO2	inactive
NC(=O)c1c(NC(=O)c2cc3ccccc3o2)sc2c1CCC2	inconclusive: 11.2 µM [quencher, side channel, partial curve]
COc1ccc(O[C@H]2C=C[C@@H](c3ccccc3)O[C@@H]2COC(=O)CC/C(C)=N/O[C@@H](C)c2cn([C@H](CO)Cc3ccccc3)nn2)cc1	inconclusive: 0.794 µM [fluorescent, side channel, full curve, poor fit]
